Scores with a large standard error are left out. Not listed are two conditions whose scores span a narrow range. In variant names, del marks residues removed and ins residues inserted between the two positions. For some assays here: The concentration of ogerin is not given here.
B1: GPR68, Q15743 (parent)
chain: MGNITADNSSMSCTIDHTIHQTLAPVVYVTVLVVGFPANCLSLYFGYLQIKARNELGVYLCNLTVADLFYICSLPFWLQYVLQHDNWSHGDLSCQVCGILLYENIYISVGFLCCISVDRYLAVAHPFRFHQFRTLKAAVGVSVVIWAKELLTSIYFLMHEEVIEDENQHRVCFEHYPIQAWQRAINYYRFLVGFLFPICLLLASYQGILRAVRRSHGTQKSRKDQIQRLVLSTVVIFLACFLPYHVLLLVRSVWEASCDFAKGVFNAYHFSLLLTSFNCVADPVLYCFVSETTHRDLARLRGACLAFLTCSRTGRAREAYPLGAPEASGKSGAQGEEPELLTKLHPAFQTPNSPGSGGFPTGRLA

Columns and labels:
[1] = variants of: B1; assay: cAMP reporter score (Enrich2 score, wild type = 0); higher = more signal; HEK293T, FACS bins
[2] = variants of: B1; assay: surface expression score (Enrich2 score, wild type = 0); higher = more signal; HEK293T, FACS bins

| Variant | cAMP reporter score ([1]; pH 5.5) | cAMP reporter score ([1]; pH 6) | cAMP reporter score ([1]; pH 6, modulator: ogerin) | cAMP reporter score ([1]; pH 6.5, modulator: ogerin) | surface expression score [2] |
| --- | --- | --- | --- | --- | --- |
| MGNITADNSSMSCTIDHTIHQTLAPVVYVTVLVVGFPANCLSLYFGYLQIKARNELGVYLCNLTVADLFYICSLPFWLQYVLQHDNWSHGDLSCQVCGILLYENIYISVGFLCCISVDRYLAVAHPFRFHQFRTLKAAVGVSVVIWAKELLTSIYFLMHEEVIEDENQHRVCFEHYPIQAWQRAINYYRFKVGFLFPICLLLASYQGILRAVRRSHGTQKSRKDQIQRLVLSTVVIFLACFLPYHVLLLVRSVWEASCDFAKGVFNAYHFSLLLTSFNCVADPVLYCFVSETTHRDLARLRGACLAFLTCSRTGRAREAYPLGAPEASGKSGAQGEEPELLTKLHPAFQTPNSPGSGGFPTGRLA [L191K] | -2.06 | -1.39 | -1.78 | -1.57 | -2.23 |
| MGNITADNSSMSCTIDHTIHQTLAPVVYVTVLVVGFPANCLSLYFGYLQIKARNELGVYLCNLTVADLFYICSLPFWLQYVLQHDNWSHGDLSCQVCGILLYENIYISVGFLCCISVDRYLAVAHPFRFHQFRTLKAAVGVSVVIWAKELLTSIYFLMHEEVIEDENQHRVCFEHYPIQAWQRAINYYRFHVGFLFPICLLLASYQGILRAVRRSHGTQKSRKDQIQRLVLSTVVIFLACFLPYHVLLLVRSVWEASCDFAKGVFNAYHFSLLLTSFNCVADPVLYCFVSETTHRDLARLRGACLAFLTCSRTGRAREAYPLGAPEASGKSGAQGEEPELLTKLHPAFQTPNSPGSGGFPTGRLA [L191H] | 0.042 | -0.274 | -0.229 | -0.699 | -0.85 |
| MGNITADNSSMSCTIDHTIHQTLAPVVYVTVLVVGFPANCLSLYFGYLQIKARNELGVYLCNLTVADLFYICSLPFWLQYVLQHDNWSHGDLSCQVCGILLYENIYISVGFLCCISVDRYLAVAHPFRFHQFRTLKAAVGVSVVIWAKELLTSIYFLMHEEVIEDENQHRVCFEHYPIQAWQRAINYYRFIVGFLFPICLLLASYQGILRAVRRSHGTQKSRKDQIQRLVLSTVVIFLACFLPYHVLLLVRSVWEASCDFAKGVFNAYHFSLLLTSFNCVADPVLYCFVSETTHRDLARLRGACLAFLTCSRTGRAREAYPLGAPEASGKSGAQGEEPELLTKLHPAFQTPNSPGSGGFPTGRLA [L191I] | 0.723 | -0.227 | 1.22 | 0.466 | 1.11 |
| MGNITADNSSMSCTIDHTIHQTLAPVVYVTVLVVGFPANCLSLYFGYLQIKARNELGVYLCNLTVADLFYICSLPFWLQYVLQHDNWSHGDLSCQVCGILLYENIYISVGFLCCISVDRYLAVAHPFRFHQFRTLKAAVGVSVVIWAKELLTSIYFLMHEEVIEDENQHRVCFEHYPIQAWQRAINYYRFGVGFLFPICLLLASYQGILRAVRRSHGTQKSRKDQIQRLVLSTVVIFLACFLPYHVLLLVRSVWEASCDFAKGVFNAYHFSLLLTSFNCVADPVLYCFVSETTHRDLARLRGACLAFLTCSRTGRAREAYPLGAPEASGKSGAQGEEPELLTKLHPAFQTPNSPGSGGFPTGRLA [L191G] | 0.656 | -0.213 | 0.948 | 0.313 | 0.47 |
